Reference: PubChem BioAssay AID1159614 (National Center for Advancing Translational Sciences (NCATS), 2016)
The campaign covered roughly 45,000 compounds. About 65 (0.1%) were called active. Calls come from the whole dose curve; as a rule, active = well fitted activation curve with a large enough effect; inconclusive = small, poorly fitted or top-dose-only effect; inactive = no such curve, though single readings can be large or run the other way. The list shows a part of the results.

What follows are molecules tested against Galactocerebrosidase (Homo sapiens) (UniProt P54803) (assay: A Novel Cell-Based Assay to Identify Small Molecules for B -Galactocerebrosidase). Conditions: 145M-Twi-hGALC-G270D cells (Twitcher mouse brain line with human GALC G270D), HMU-beta-Gal fluorescence, 48 h; series mostly up to 57.5 µM; activation: at the top concentration.
Sequence of UniProt P54803 (P54803 whole entry, looked up): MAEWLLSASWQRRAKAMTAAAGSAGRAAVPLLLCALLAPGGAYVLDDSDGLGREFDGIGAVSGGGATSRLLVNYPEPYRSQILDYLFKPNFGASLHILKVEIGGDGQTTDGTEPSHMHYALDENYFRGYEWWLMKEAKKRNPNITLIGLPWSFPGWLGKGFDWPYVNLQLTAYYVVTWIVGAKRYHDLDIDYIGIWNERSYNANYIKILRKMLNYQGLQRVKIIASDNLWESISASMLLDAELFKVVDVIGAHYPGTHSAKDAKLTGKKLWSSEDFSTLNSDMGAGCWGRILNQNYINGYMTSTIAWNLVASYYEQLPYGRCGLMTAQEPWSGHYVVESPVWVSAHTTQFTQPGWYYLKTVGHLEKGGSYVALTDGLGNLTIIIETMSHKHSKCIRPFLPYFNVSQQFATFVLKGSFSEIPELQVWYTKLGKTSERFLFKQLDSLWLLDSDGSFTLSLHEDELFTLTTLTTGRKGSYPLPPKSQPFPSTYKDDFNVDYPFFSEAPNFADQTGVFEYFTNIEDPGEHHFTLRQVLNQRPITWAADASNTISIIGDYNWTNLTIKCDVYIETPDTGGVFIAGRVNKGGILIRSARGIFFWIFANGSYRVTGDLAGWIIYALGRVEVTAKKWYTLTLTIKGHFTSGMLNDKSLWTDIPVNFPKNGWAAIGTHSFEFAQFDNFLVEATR
In short: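 Mutant human GALC (G270D), stably expressed in a Twitcher mouse brain cell line lacking endogenous GALC, is measured in live-treated cells via 6-hexadecanoylamino-4-methylumbelliferyl-β-galactoside hydrolysis (0.1 mM final, pH 5.2) with fluorescent detection.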
Note: 0% is about no effect; nearly all actives have a fitted effect of over 65% in size.

activation, inactive:
Cc1ccc(Cl)cc1N1CCN(C(=O)CN2C(=O)CSc3c2c(C)nn3-c2ccccc2)CC1 -15.6%, CCc1ccc2c(c1)-c1ccccc1S(=O)(=O)N2CC(=O)N1CCCCC1 -13.9%, COc1ccc(-c2cn3c(n2)sc2cc(C(=O)NCCc4ccc(OC)cc4OC)ccc23)cc1 -9.75%, CCOCCCN(Cc1ccco1)C(=O)c1cc2c(=O)[nH]c3ccc(C)cc3c2s1 -23.9%, COc1ccc(/C=C(\C#N)c2nc3ccccc3n2C)c(OC)c1 -16.4%, O=S(=O)(c1ccccc1)c1nnn2c1nc(NCc1ccccc1)c1sccc12 -12%, COCCNC(=O)Cn1c(=O)n(CCCCCC(=O)Nc2ccccc2)c(=O)c2sccc21 -16.2%, COc1ccc(CNC(=O)CCCn2c(=O)c3cccn3c3cccnc32)cc1 -4.61%, CCN(CC)CCCNC(=O)CN1N=C(c2ccc(OC)cc2)CCC1=O -4.48%, CN(C/C=C/c1ccccc1)Cc1cccc2ccccc12 7.9%, COc1ccc(C(=O)N2c3ccc(C)cc3C(C)(c3ccccc3)CC2(C)C)cc1 (stereo unspecified) -42.9%, COc1cc(Cl)c(C)cc1NC(=O)Cn1ncc2c3ccccc3n(Cc3ccccc3)c2c1=O -9.68%, CCc1ccc(CNC(=O)c2c(C)oc3ncn(CC(C)C)c(=O)c23)cc1 -5.53%, CCCCNS(=O)(=O)c1ccc2nc(-c3cccnc3)cc(C(=O)NCCOC)c2c1 -9.98%, Cc1ccccc1NC(=O)c1ccc(Cl)c(S(=O)(=O)N2CCCCCC2)c1 -40.3%, CCc1ccc(S(=O)(=O)c2c(C(=O)c3ccccc3)cnc3ccc(CC)cc23)cc1 -9.26%, CCOCCCNC(=O)c1c(NC(=O)Cc2coc3ccc(C)cc23)sc2c1CCC2 -16.4%, O=S(=O)(c1cccc(F)c1)N1CCC(Oc2ccc(-n3cnnn3)cc2)CC1 -6.06%, CC(C)c1ccc(OCC(O)CN2CCN(c3ccc(F)cc3)CC2)cc1 (stereo unspecified) -9.25%, COc1ccccc1CN1CCC(CNC(=O)c2cnn(-c3ccc(Cl)cc3)c2C2CCN(C(=O)OC(C)(C)C)CC2)CC1 -18.5%, O=C1c2[nH]nc(-c3ccccc3O)c2C(c2ccc(F)cc2)N1CCO (stereo unspecified) -7.3%, COc1ccc(OC)c(NC(=O)Cc2c(C(=O)O)n(C)c3ccc(C)cc23)c1 -13%, CCC1CCCCN1C(=O)Cn1c(=O)cc(C(F)(F)F)c2c(C)nn(C)c21 (stereo unspecified) 2.68%, COc1ccc(NC(=O)CSc2nccn2Cc2ccco2)c(OC)c1 -11.9%, Cc1ccc(CN(Cc2ccco2)C(=O)c2ccc(Cl)cc2)o1 4.36%, CCc1ccc(-n2c(=O)c3c(C)c(C(=O)N(C)C)sc3n(Cc3ccccc3C#N)c2=O)cc1 -8.19%, CCc1ccccc1NC(=O)CSc1ncc(S(=O)(=O)c2ccc(C(C)C)cc2)c(N)n1 -3.72%, CCc1cccc(C)c1Nc1c(-c2cccc(O)c2)nc2nc(C)cc(C)n12 -13.7%, CC1=C(C(=O)Nc2ccc(Cl)cc2)C(c2ccc(C(F)(F)F)cc2)n2nnnc2N1 (stereo unspecified) -16%, CCOC(=O)c1c(C)sc(-c2c(-c3ccc(OC)c(F)c3)[nH]c3[nH]c(=O)[nH]c(=O)c23)c1O -9.97%, CCOC(=O)c1cc(-c2ccc(OC)cc2)n(CCC(=O)Nc2nc3ccc(OCC)cc3s2)c1C -13.9%, COc1ccc(-c2nc(SCC(=O)N3CCCCC3C)n[nH]2)cc1 (stereo unspecified) -6.73%, COC(=O)c1cnn(-c2ccc(C(=O)Nc3cc(OC)c(OC)c(OC)c3)cc2)c1N -11.2%, CCOc1ccccc1CNc1ncnc2onc(-c3ccc(F)cc3)c12 -4.73%, CCN1CCC(N(Cc2ccc(F)cc2)C(=O)Nc2cc(C)ccc2C)CC1 0.96%, CCCNC(=O)CN1C(=O)COc2ccc(S(=O)(=O)N3CCCC3)cc21 -8.15%, CCOc1c(CC2C(=O)Nc3ccc(Br)cc32)cccc1OC (stereo unspecified) -7.89%, Cc1nc(N2CCOCC2)c2c(C(=O)N3CCN(c4cc(Cl)ccc4C)CC3)c(C)oc2n1 -16%, O=C(CN1C(=O)C2CCCCN2c2ccc(C(=O)N3CCCC3)cc21)NCc1ccc(F)cc1 (stereo unspecified) -10.1%, COC(=O)c1ccc(C2CC(=O)Nc3c2c(C)nn3-c2nc(C)cc(C)n2)cc1 (stereo unspecified) -13.7%, O=C(Nc1ccc(S(=O)(=O)Nc2ncccn2)cc1)c1cccc(Cl)c1 -11%, CCOc1ccc(N2C(=O)c3[nH]nc(-c4ccccc4)c3C2c2ccc(O)c(OC)c2)cc1 (stereo unspecified) -14.9%, COc1ccc(-n2cc(C(=O)NCCc3ccc(C)cc3)c3ccccc3c2=O)cc1 5.3%, CC1CCCCN1C(=O)CSc1nc2ccccc2nc1Cc1ccccc1 (stereo unspecified) -9.24%, COc1cc(NC(=O)Cn2c(=O)n(Cc3ccccc3)c(=O)c3oc4ccccc4c32)cc(OC)c1 -8.23%, CCOC(=O)c1c(S(=O)(=O)N2CCC(C(=O)Nc3ccc(C)cn3)CC2)c(C)n(C)c1C -14.5%, CCn1c(SC)nc2c([nH]c3ccccc32)c1=O -9.56%, Cc1cc(C)cc(NC(=O)CC(C)n2nc(C)cc2C)c1 (stereo unspecified) -15.8%, CCN(CC)c1ccc(NC(=O)CN2CCN(S(=O)(=O)c3ccc(C(C)C)cc3)CC2)cc1 -15.9%, O=C(Cn1ccc2cc(S(=O)(=O)N3CCCC3)ccc21)NCc1ccc(Cl)cc1 7.16%, COc1ccc(CNC(=O)c2ccc3c(c2)N=C(C)c2c(C)ccc(C)c2S3)cc1 -8.14%, COc1ccc(-c2noc(CC(=O)N(C)c3ccccc3F)n2)cc1 -17%, O=C(Nc1ccc(F)cc1)C1CCN(c2nc3ccccc3nc2C(F)(F)F)CC1 -15.5%, COc1ccc(NC(=O)C2=C(C)Nc3nc(SCc4ccc(C)cc4C)nn3C2c2cccc(OC)c2OC)cc1 (stereo unspecified) -6.61%, COc1ccccc1NC(=O)c1sc2nc(-c3cc4cc(Cl)ccc4oc3=O)[nH]c(=O)c2c1C -8.72%, Cc1ccc(CNC(=O)c2oc3ccc(S(=O)(=O)N4CCCC(C)C4)cc3c2C)cc1 (stereo unspecified) -2.62%, Cc1oc2ncnc(N3CCCCC3)c2c1C(=O)NCC1CCN(Cc2ccccc2F)CC1 -15.3%, Cc1[nH]c(=O)[nH]c(=O)c1S(=O)(=O)Nc1cccc(Cl)c1C -9.36%, CCOc1ccc(CNC(=O)Cn2nc(C)c3nn(-c4ccc(Cl)cc4)c(C)c3c2=O)cc1 -15.3%, COc1cc(-c2ccno2)ccc1S(=O)(=O)N1CCN(c2cccc(Cl)c2)CC1 -4.24%, COc1ccc(CCNS(=O)(=O)c2ccc3c(c2)c(=O)n(C)c(=O)n3C)cc1OC -17.3%, O=C(NCCN1CCOCC1)c1ccc(Cl)cc1 -17.5%, COc1ccc(OC)c(NC(=O)Cn2nc3c(cc2=O)CCCC3)c1 9.57%, NS(=O)(=O)c1ccc(NC(=O)c2cc(-c3cccs3)nc3ccccc23)cc1 -12%, Cc1ccc(NC(=O)c2nc(S(C)(=O)=O)ncc2N(Cc2cccc(F)c2)Cc2ccco2)cc1C -14.7%, Cc1ccc(NC(=O)CCCc2nnc3n(C)c(=O)c4sccc4n23)cc1C -6.89%, Cc1cccc(NC(c2cccc(F)c2)c2ccc3ccc(C)nc3c2O)n1 (stereo unspecified) -5.14%, Cc1ccc(CCNC(=O)c2cc3c(s2)-c2ccccc2OC3)cc1 -11.2%, c1ccc(-c2cc(-c3ccccc3)c3c(n2)-c2ccccc2OC3)cc1 -4.4%, CC1CCN(S(=O)(=O)c2ccc3c(c2)N(CC(=O)NCc2ccccc2Cl)C(=O)CS3)CC1 -3.35%, Cc1nc2ccc(S(=O)(=O)NC(C(=O)NCc3ccccc3Cl)C(C)C)cc2s1 (stereo unspecified) -12.8%, NC(=O)CSc1nc2ccc(NC(=O)COc3ccccc3)cc2s1 -20.1%, CCCn1c(=N)c(C(=O)NC2CCCC2)cc2c(=O)n3cc(C)ccc3nc21 -3.84%, CC1CCC(NC(=O)c2ccc3c(c2)N(Cc2ccccc2F)C(=O)c2ccccc2S3)CC1 (stereo unspecified) -16.2%, NCCNCCNCCN -14.6%, Cc1cc(C)cc(NC(=O)Cn2nnc(C(=O)NCCc3ccccc3)c2N)c1 -20.9%, COc1ccc(OC)c(CNS(=O)(=O)c2c(C(=O)N3CCC(C)CC3)c(C)n(C)c2C)c1 -1.11%, CCCCNc1ccc(-c2nc(-c3ccccc3)no2)cc1[N+](=O)[O-] -8.48%, Cc1ccc2c(CC(=O)N3CCN(c4cccc(Cl)c4)CC3)coc2c1 -21.2%, O=C(Nc1cccc(C(F)(F)F)c1)C1CCCN(S(=O)(=O)c2cccc3nsnc23)C1 (stereo unspecified) -30%, O=S(=O)(Nc1ccc(F)c(C(F)(F)F)c1)c1ccc(N2CCCCS2(=O)=O)cc1 -16.8%, CSc1ncc(Cl)c(C(=O)NCc2ccc(C)cc2)n1 -12.8%, COc1cc(Nc2nc(SCc3ccccc3F)nc3ccccc23)cc(OC)c1 -6.95%, Cc1ccc(CCNC(=O)c2ccc(CS(=O)(=O)c3ccc(Br)cc3)o2)cc1 -10.4%, CCOc1ccccc1NC(=O)CSc1c(C)cnc2c1c(=O)n(C)c(=O)n2C -1.33%, CCOc1ccc(C(=O)NCCc2sc(-c3ccc(C)cc3)nc2C)cc1 -16.9%, CC(C)CCN1C(=O)N(c2ccccc2)C(=O)C1CC(=O)Nc1ccc(Cl)cc1 (stereo unspecified) -7.47%, Cc1ccc(Sc2ccc(N3CCCC(C(=O)Nc4ccc(Cl)cc4)C3)nn2)cc1 (stereo unspecified) 2.22%, CC(C)NC(=O)CSc1nc2ccccc2nc1N1CCCCC1 -6.58%, COc1ccccc1N1CCN(CCCNC(=O)c2cnn(-c3ccccc3Cl)c2C2CCN(C(=O)OC(C)(C)C)CC2)CC1 -9.35%, CC1=C(C(=O)Nc2cccc(C)c2C)C2(CCCCC2)OC1=O -9.01%, CC1=C(C(=O)Nc2c(C)cc(C)cc2C)C2(CCN(C(C)C)CC2)OC1=O -8.55%, CCOCCCNC(=O)C(c1ccc(OC)cc1)N(Cc1cccs1)C(=O)c1ccccc1O (stereo unspecified) -17.2%, COc1ccc(CCNC(=O)c2cnc3sc(N4CCCCCC4)nn3c2=O)cc1OC 5.85%, COc1ccc(-c2cc3c(=O)n(CC(=O)Nc4ccccc4C(F)(F)F)ccn3n2)cc1OC -21.8%, COc1ccc(C(c2c(C)n(C)n(-c3ccccc3)c2=O)c2c(C)n(C)n(-c3ccccc3)c2=O)cc1O -14.4%
